{
  "sequences": {"note": "Chains of the proteins cited; added tags and fusions are not shown. Lines headed by an entry give the natural chain unless they say otherwise; changes in a name come on top. A line that says so, or that is headed by a name, gives the form on record, which may keep a tag or linker. Residues count along the entry.", "UniProt P68331": "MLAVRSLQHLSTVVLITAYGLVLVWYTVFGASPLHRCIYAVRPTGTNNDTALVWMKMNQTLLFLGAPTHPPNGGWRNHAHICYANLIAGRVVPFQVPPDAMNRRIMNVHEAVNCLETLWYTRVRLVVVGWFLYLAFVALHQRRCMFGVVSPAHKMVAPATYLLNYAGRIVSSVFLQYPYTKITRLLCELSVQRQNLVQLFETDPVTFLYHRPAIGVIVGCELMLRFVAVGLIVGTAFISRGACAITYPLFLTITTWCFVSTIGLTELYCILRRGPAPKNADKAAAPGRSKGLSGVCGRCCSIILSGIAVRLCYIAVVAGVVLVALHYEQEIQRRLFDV", "full-length HSV-1 glycoprotein K with in-frame Flag tag": "residues 31-338 of P68331", "Flag-gK1.1 (gK aa 31–115, without the signal sequence)": "residues 31-115 of P68331", "Flag-gK2 (gK aa 116–230)": "residues 116-230 of P68331", "Flag-gK3 (gK aa 231–338)": "residues 231-338 of P68331"},
  "source": "paper PMC8370620",
  "binders": {"B1": {"name": "signal peptide peptidase (SPP), full-length, with in-frame HA tag and ER retention signal (enzyme, UniProt Q8TCT9 1-377)", "chain": "MDSALSDPHNGSAEAGGPTNSTTRPPSTPEGIALAYGSLLLMALLPIFFGALRSVRCARGKNASDMPETITSRDAARFPIIASCTLLGLYLFFKIFSQEYINLLLSMYFFVLGILALSHTISPFMNKFFPASFPNRQYQLLFTQGSGENKEEIINYEFDTKDLVCLGLSSIVGVWYLLRKHWIANNLFGLAFSLNGVELLHLNNVSTGCILLGGLFIYDVFWVFGTNVMVTVAKSFEAPIKLVFPQDLLEKGLEANNFAMLGLGDVVIPGIFIALLLRFDISLKKNTHTYFYTSFAAYIFGLGLTIFIMHIFKHAQPALLYLVPACIGFPVLVALAKGEVTEMFSYEESNPKDPAAVTESKEGTEASASKGLEKKEK"}},
  "key": {"[1]": {"molecular_target": "Flag-gK1.1 (gK aa 31–115, without the signal sequence) (HSV-1) (UniProt P68331)", "experiment": "co-IP; lysate of cells co-transfected with HA-SPP and Flag-gK or Flag-gK1.1, 48 hr, IP with anti-Flag in the presence of 5 μg/ml of the indicated gK peptide, 4°C, blot anti-HA"}, "[2]": {"molecular_target": "full-length HSV-1 glycoprotein K with in-frame Flag tag (HSV-1) (UniProt P68331)", "experiment": "co-IP; lysate of cells co-transfected with HA-SPP and Flag-gK or Flag-gK1.1, 48 hr, IP with anti-Flag in the presence of 5 μg/ml of the indicated gK peptide, 4°C, blot anti-HA"}, "[3]": {"molecular_target": "Flag-gK1 (gK aa 1–115) (HSV-1) (UniProt P68331)", "experiment": "co-IP; HeLa cells co-transfected with HA-SPP and Flag-tagged gK construct (1:1), 48 hr; lysate (25 mM Tris pH 7.2, 150 mM NaCl, 5% glycerol, 1 mM EDTA, 1% NP-40); IP with anti-Flag antibody at 4°C, western blot with anti-HA"}, "[4]": {"molecular_target": "Flag-gK1.1 (gK aa 31–115, without the signal sequence) (HSV-1) (UniProt P68331)", "experiment": "co-IP; HeLa cells co-transfected with HA-SPP and Flag-tagged gK construct (1:1), 48 hr; lysate (25 mM Tris pH 7.2, 150 mM NaCl, 5% glycerol, 1 mM EDTA, 1% NP-40); IP with anti-Flag antibody at 4°C, western blot with anti-HA"}, "[5]": {"molecular_target": "Flag-gK2 (gK aa 116–230) (HSV-1) (UniProt P68331)", "experiment": "co-IP; HeLa cells co-transfected with HA-SPP and Flag-tagged gK construct (1:1), 48 hr; lysate (25 mM Tris pH 7.2, 150 mM NaCl, 5% glycerol, 1 mM EDTA, 1% NP-40); IP with anti-Flag antibody at 4°C, western blot with anti-HA"}, "[6]": {"molecular_target": "Flag-gK3 (gK aa 231–338) (HSV-1) (UniProt P68331)", "experiment": "co-IP; HeLa cells co-transfected with HA-SPP and Flag-tagged gK construct (1:1), 48 hr; lysate (25 mM Tris pH 7.2, 150 mM NaCl, 5% glycerol, 1 mM EDTA, 1% NP-40); IP with anti-Flag antibody at 4°C, western blot with anti-HA"}},
  "note": "Results are given in words; binding and its absence hold for the method and conditions named. In cells and extracts the contact can be indirect. Some binding calls cover weakened binding; strength is not graded here. Where a sequence is shown, tags or fusion partners need not be part of it.",
  "data": [
    {"binder": "B1", "values": [
      {"measurement": "binding", "setting": "[1]", "value": "binds"},
      {"measurement": "binding", "setting": "[2]", "value": "binds"},
      {"measurement": "binding", "setting": "[3]", "value": "binds"},
      {"measurement": "binding", "setting": "[4]", "value": "binds"},
      {"measurement": "binding", "setting": "[5]", "value": "no binding"},
      {"measurement": "binding", "setting": "[6]", "value": "no binding"}
    ]}
  ]
}
